About 4,700 (1.2%) of roughly 390,000 compounds were called active. The inconclusive results got no clear call from the source; some entries with a clear call stand among them for comparison. Calls follow the shape of the dose curve; as a rule, active = well fitted inhibition curve with a large enough effect; inconclusive = small, poorly fitted or top-dose-only effect, or another doubt; inactive = no such curve, though single readings can be large or run the other way. Potencies of inconclusive entries are doubtful fits and often do not repeat.
Biological target: DNA polymerase eta (Homo sapiens) (UniProt Q9Y253)
Assay: qHTS for Inhibitors of Polymerase Eta
Settings: recombinant Pol eta, fluorescent DNA replication assay; series mostly up to 114 µM; activity change, negative = inhibition: at the top concentration
Summary of the method: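 Fluorescent replication assay: 50 nM final substrate added after a 15 min room-temperature compound preincubation with 10 nM enzyme. Signal taken at 0 min and again at 10 min.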
% is scaled to controls: 0 for no effect and ±100 for the full control effect; potency is read from the fitted curve at half-maximal effect; tags tell the direction and shape of the fitted curve.

UniProt Q9Y253, sequence (Q9Y253 whole entry, looked up): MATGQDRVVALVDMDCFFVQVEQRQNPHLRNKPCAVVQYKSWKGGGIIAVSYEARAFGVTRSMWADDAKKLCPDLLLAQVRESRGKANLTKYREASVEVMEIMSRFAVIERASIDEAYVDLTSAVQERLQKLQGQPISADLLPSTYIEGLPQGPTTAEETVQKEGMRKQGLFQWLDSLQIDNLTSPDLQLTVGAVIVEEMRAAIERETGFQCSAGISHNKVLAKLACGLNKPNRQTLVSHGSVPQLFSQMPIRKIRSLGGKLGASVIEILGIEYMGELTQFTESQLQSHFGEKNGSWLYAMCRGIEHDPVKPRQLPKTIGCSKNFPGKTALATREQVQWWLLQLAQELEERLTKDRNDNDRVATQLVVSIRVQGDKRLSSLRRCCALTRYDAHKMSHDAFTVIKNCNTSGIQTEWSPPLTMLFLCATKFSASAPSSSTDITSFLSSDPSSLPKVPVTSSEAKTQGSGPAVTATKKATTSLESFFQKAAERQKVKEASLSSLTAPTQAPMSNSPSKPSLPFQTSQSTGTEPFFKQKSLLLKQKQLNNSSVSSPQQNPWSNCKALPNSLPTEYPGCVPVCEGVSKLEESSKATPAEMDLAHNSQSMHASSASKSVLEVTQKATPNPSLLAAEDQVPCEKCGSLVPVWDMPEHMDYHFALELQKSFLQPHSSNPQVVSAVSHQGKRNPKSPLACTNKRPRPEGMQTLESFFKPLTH

| Structure (SMILES) | Potency | activity change, negative = inhibition |
| --- | --- | --- |
| O=C(N/N=C/c1cccs1)c1cc(-c2ccc3ccccc3c2)n[nH]1 | inconclusive: 20 µM [inhibitor, partial curve, poor fit] |  |
| CN(C)S(=O)(=O)c1cccc(-n2sc3ccccc3c2=O)c1 |  | inactive: 0.158% |
| Cc1cc(=O)oc2c(CN3CC(C)OC(C)C3)c(O)c(Cl)cc12 (stereo not given) | active: 20 µM |  |
| COc1ccc(C(=O)O)cc1NC(=S)NC(=O)c1ccc(-c2ccc(Cl)cc2)o1 | active: 20 µM |  |
| COC(=O)c1c(NC(=O)CN2CCC3(O)CCCCC3C2c2ccc(OC)cc2OC)sc(C)c1C (stereo not given) | inconclusive: 15.8 µM [inhibitor, partial curve] |  |
| COc1ccc(-n2c(C)nc3cc(C(=O)NCc4ccc5c(c4)OCO5)ccc32)cc1 | inconclusive: 50.1 µM [inhibitor, partial curve, poor fit] |  |
| O=C(CN1C(=O)COc2ccc(S(=O)(=O)N3CCCCCC3)cc21)NCc1ccc(F)cc1 | inconclusive: 100 µM [inhibitor, partial curve, poor fit] |  |
| N#C/C(=C/c1ccc(OCc2ccc(C(=O)O)cc2)c(Br)c1)c1cccc(F)c1 | inconclusive: 56.2 µM [inhibitor, partial curve, poor fit] |  |
| CCCSCCCNC(=O)c1ccc2nc(Cc3ccccc3)oc2c1 |  | inactive: -11.5% |
| Cc1ccc(Cn2c(CNS(=O)(=O)c3ccc(C(C)(C)C)cc3)nc3cccnc32)cc1 | inconclusive: 50.1 µM [inhibitor, partial curve, poor fit] |  |
| O=C(O)c1ccc(N/N=C/c2ccc(OC(=O)c3cccc(Cl)c3)cc2)cc1 | inconclusive: 89.1 µM [inhibitor, single point] |  |
| C[C@H](Cc1ccc(O)c(O)c1)[C@@H](C)Cc1ccc(O)c(O)c1 | active: 3.16 µM |  |
| COc1cccc(CN2CCC(n3nccc3NC(=O)CCOc3ccccc3)CC2)c1O |  | inactive: -9.15% |
| COc1cccc2c1C(=O)c1c(O)c3c(c(O)c1C2=O)C[C@](O)(C(C)=O)C[C@H]3O[C@@H]1C[C@@H](N)[C@@H](O)[C@@H](C)O1 | active: 39.8 µM |  |
| CN(C)/C=C1/Sc2ccccc2C1=O |  | inactive: 6.86% |
| CC(C)C1C(=O)N(Cc2cn(CCC3OCCCO3)nn2)CCS(=O)(=O)N1Cc1ccc(-c2cccc(N(C)C)c2)cc1 (stereo not given) | inconclusive: 89.1 µM [inhibitor, partial curve, poor fit] |  |
| COc1ccc(-c2[nH]ncc2N=Nc2ccccc2)cc1 | inconclusive: 50.1 µM [inhibitor, partial curve, poor fit] |  |
| COc1ccc(OC)c(NC(=O)c2ccc(N3C(=O)C4CC=C(C)CC4C3=O)cc2)c1 (stereo not given) | inconclusive: 39.8 µM [inhibitor, single point] |  |
| COc1ccc(CC(=O)OCC(=O)c2ccc[nH]2)cc1 | inconclusive: 28.2 µM [inhibitor, partial curve, poor fit] |  |
| C#CCOCCOCCOCCNc1nc(N2CCN(C(=O)CCCCCCCCCCNC(=O)[C@H](CCCCN)n3cc(CCO)nn3)CC2)nc(N2CCN(C(=O)CCCCCCCCCCNC(=O)[C@H](CCCCN)n3cc(CCO)nn3)CC2)n1 | inconclusive: 89.1 µM [inhibitor, partial curve] |  |
| O=C(COc1ccc(/C=N/NC(=O)c2ccccc2Br)cc1)Nc1ccccc1 |  | inactive: -11.5% |
| CCC(C(=O)NCc1ccco1)n1nc(-c2ccc(OC)cc2)ccc1=O (stereo not given) | inconclusive: 15.8 µM [inhibitor, full curve, poor fit] |  |

| Structure (SMILES) | Potency | activity change, negative = inhibition |
| --- | --- | --- |
| O=S(=O)(Nc1ccc(N=Nc2ccccc2)cc1)c1ccccc1 | inconclusive: 3.98 µM [inhibitor, partial curve, poor fit] |  |
| CCN(CC)c1ccc(NC(=O)c2cc(S(=O)(=O)N3CCc4ccccc43)cn2C)c(C)c1 |  | inactive: -11.2% |
| CC/C(=N\NC(=O)CCC(=O)NCc1ccccc1)c1ccc(O)cc1 |  | inactive: 1.43% |
| CC(=O)N1Cc2ccccc2C(C)CC12CCCCC2 (stereo not given) | inconclusive: 89.1 µM [inhibitor, partial curve, poor fit] |  |
| O=C(c1ccc(=O)oc1)N1CCN(C(c2ccccc2)c2ccccc2)CC1 | inconclusive: 79.4 µM [inhibitor, partial curve, poor fit] |  |
| CC1(C)Cc2c(sc(NC(=S)NC(=O)c3ccccc3)c2C(=O)O)CO1 |  | inactive: -2.46% |
| COc1ccc(NC(=O)c2cc(-c3ccco3)nc3ccccc23)cn1 | active: 20 µM |  |
| O=C(O)COc1ccc2c(c1)O/C(=C\c1ccco1)C2=O | active: 5.01 µM |  |
| COc1ccccc1C(C)NC(=O)c1ccc(C)o1 (stereo not given) | inconclusive: 39.8 µM [inhibitor, single point] |  |
| COc1ccc(C(=O)Nc2nnc(S(=O)(=O)N(C)c3ccc(Cl)cc3)s2)cc1OC | inconclusive: 89.1 µM [inhibitor, partial curve, poor fit] |  |
| COc1cc(/C=C(\C#N)C(=O)Nc2ccc(C(=O)O)cc2)ccc1OC(=O)c1cccc(F)c1 | inconclusive: 79.4 µM [inhibitor, partial curve, poor fit] |  |
| CCOc1ccccc1NC(=O)Cn1cnc2sc(C)c(S(=O)(=O)N3CCC(C)CC3)c2c1=O |  | inactive: -6.38% |
| CC1C(=O)C(C)C(c2ccc(Br)cc2)NC1c1ccc(Br)cc1 (stereo not given) | inconclusive: 35.5 µM [inhibitor, partial curve, poor fit] |  |
| Cc1ccc(C(C(=O)Nc2ccc3c(c2)OCO3)N(C)C(=O)Cc2c[nH]c3ccccc23)cc1 (stereo not given) |  | inactive: -18.2% |
| O=C(O)CCc1ccc(-c2cccs2)n1NC(=O)c1ccccc1Br | inconclusive: 89.1 µM [inhibitor, partial curve, poor fit] |  |
| CC(=O)c1ccc(NC(=O)CC2Nc3cccc4cccc(c34)NC2=O)cc1 (stereo not given) | inactive |  |
| NNc1cccc(C=Cc2ccccc2)cc1=O | inconclusive: 7.94 µM [inhibitor, full curve, poor fit] |  |
| CCOC(=O)C1=NNC(C(=O)c2ccc(OC)cc2)C1c1ccccc1 (stereo not given) | inconclusive: 100 µM [inhibitor, partial curve, poor fit] |  |
| COc1ccc(/C=C2\SC(=S)N(CCC(=O)NC3C=CS(=O)(=O)C3)C2=O)cc1 (stereo not given) | inconclusive: 50.1 µM [inhibitor, partial curve] |  |
| CC1=CC2(O)OCCN(CCO)C2=CC1=O (stereo not given) | inconclusive: 79.4 µM [inhibitor, partial curve] |  |
| COc1ccccc1C(=O)NC(=O)CSc1nnc(N)s1 | active: 79.4 µM |  |
| CCC(=O)Oc1ccc(C/C(=N\O)c2ccc(O)cc2O)o1 | active: 79.4 µM |  |

| Structure (SMILES) | Potency | activity change, negative = inhibition |
| --- | --- | --- |
| Cn1ncc([N+](=O)[O-])c1C(=O)Nc1ccccc1C(=O)O |  | inactive: 0.857% |
| CCOc1ccc(S(=O)(=O)NCCC(=O)NCc2ccncc2)cc1 | inconclusive: 39.8 µM [inhibitor, partial curve, poor fit] |  |
| COc1cc(/C=C2/SC(=O)NC2=O)ccc1Oc1ccc([N+](=O)[O-])cc1[N+](=O)[O-] | active: 50.1 µM |  |
| CCC1(c2ccccc2)NC(=O)N(CC(=O)N2CCc3ccccc32)C1=O (stereo not given) | inconclusive: 89.1 µM [inhibitor, partial curve] |  |
| CCCn1c(/C=C/c2ccco2)nc2ccccc21 | active: 12.6 µM |  |
| COc1cc(/C=C/C(=O)c2c(O)cc(C)oc2=O)cc(OC)c1O | inconclusive: 35.5 µM [inhibitor, partial curve, poor fit] |  |
| O=C(Nc1cc(Cl)cc(Cl)c1)C1CC(=O)N(C2CCCC2)C1 (stereo not given) | inconclusive: 39.8 µM [inhibitor, single point] |  |
| N=c1c(C(=O)NCc2ccco2)cc2c(=O)n3ccccc3nc2n1CC1CCCO1 (stereo not given) | inconclusive: 17.8 µM [inhibitor, full curve, poor fit] |  |
| COc1cc(/C=C(\C#N)c2nc3ccccc3[nH]2)ccc1OC(=O)c1ccco1 | inconclusive: 25.1 µM [inhibitor, partial curve] |  |
| O=C(O)CSc1sc(=S)sc1SCC(=O)O | inconclusive: 79.4 µM [inhibitor, single point] |  |
| COc1cccc(N2CC34C=CC(O3)C(C(=O)O)C4C2=O)c1 (stereo not given) | active: 14.1 µM |  |
| O=C(O)CCn1cc(/C=C/C(=O)c2ccc(Cl)cc2)c(-c2ccc(Br)cc2)n1 | inconclusive: 39.8 µM [inhibitor, partial curve, poor fit] |  |
| CCCCCCC(=O)Oc1cccc(N2C(=O)C3CCCCC3C2=O)c1 (stereo not given) | inconclusive: 79.4 µM [inhibitor, partial curve, poor fit] |  |
| O=[N+]([O-])c1ccc2nc(-c3ccccc3)[nH]c2c1 | inconclusive: 28.2 µM [inhibitor, partial curve, poor fit] |  |
| CCOc1ccc(N2C(=O)c3ccc(C(=O)OCC(=O)N(CC)C4CCS(=O)(=O)C4)cc3C2=O)cc1 (stereo not given) | inconclusive: 20 µM [inhibitor, full curve] |  |
| Cc1oc(-c2ccccc2)cc1C(=O)NC(Cc1c[nH]c2ccccc12)C(=O)O (stereo not given) | inconclusive: 14.1 µM [inhibitor, single point] |  |
| O=c1cc(-c2ccc(O)cc2)oc2cc(O)c(C3OC(CO)C(O)C(O)C3O)c(O)c12 (stereo not given) | active: 20 µM |  |
| CSCC[C@H](NS(=O)(=O)c1ccc(C(C)=O)cc1)c1nnc2ccccn12 | active: 14.1 µM |  |
| COCCSc1nnc(NC(=O)Cc2cccs2)s1 | inconclusive: 50.1 µM [inhibitor, partial curve, poor fit] |  |
| COc1ccc2cc(/C=C3\SC(=S)NC3=O)c(N3CCOCC3)nc2c1 | active: 20 µM |  |
| Cc1cc(-c2nnc3n2N=C(c2ccc(-c4ccccc4)cc2)CS3)n[nH]1 | inconclusive: 22.4 µM [inhibitor, single point] |  |

From PubChem BioAssay AID588591 (National Center for Advancing Translational Sciences (NCATS), 2011)
